The list shows a part of the results.
Experiments:
Test in all cases: glycan array binding signal (z-score within array); higher = stronger binding
Details in all cases: glycan notation: IUPAC condensed, linker removed
Gal(a1-3)Gal = biological target: Gal(a1-3)Gal
In short: (§1)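 The binding signal is a Z-score computed within each array. Data were drawn from 3228 arrays in the Consortium for Functional Glycomics database, restricted to those with a known protein sequence. Scores were averaged over arrays of the same protein sequence at different concentrations or buffers, and over linkers, and negative values can be taken as non-binding.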

Gal(a1-3)Gal(b1-3)GlcNAc = biological target: Gal(a1-3)Gal(b1-3)GlcNAc
In short: as §1

[1] = biological target: Gal(a1-3)Gal(b1-3)GlcNAc(b1-2)Man
In short: as §1

[2] = biological target: Gal(a1-3)Gal(b1-3)GlcNAc(b1-2)Man(a1-3)[Gal(a1-3)Gal(b1-3)GlcNAc(b1-2)Man(a1-6)]Man(b1-4)GlcNAc(b1-4)GlcNAc
In short: as §1

[3] = biological target: Gal(a1-3)Gal(b1-3)GlcNAc(b1-3)GalNAc
In short: as §1

[4] = biological target: Gal(a1-3)Gal(b1-3)GlcNAc(b1-6)GalNAc
In short: as §1

[5] = biological target: Gal(a1-3)Gal(b1-3)[Fuc(a1-4)]GlcNAc(b1-2)Man(a1-3)[Gal(a1-3)Gal(b1-3)[Fuc(a1-4)]GlcNAc(b1-2)Man(a1-6)]Man(b1-4)GlcNAc(b1-4)GlcNAc
In short: as §1

Gal(a1-3)Gal(b1-4)Glc = biological target: Gal(a1-3)Gal(b1-4)Glc
In short: as §1

Gal(a1-3)Gal(b1-4)GlcNAc = biological target: Gal(a1-3)Gal(b1-4)GlcNAc
In short: as §1

[6] = biological target: Gal(a1-3)Gal(b1-4)GlcNAc(b1-2)Man
In short: as §1

[7] = biological target: Gal(a1-3)Gal(b1-4)GlcNAc(b1-2)Man(a1-3)[Gal(a1-3)Gal(b1-4)GlcNAc(b1-2)Man(a1-6)]Man(b1-4)GlcNAc(b1-4)GlcNAc
In short: as §1

[8] = biological target: Gal(a1-3)Gal(b1-4)GlcNAc(b1-3)GalNAc
In short: as §1

[9] = biological target: Gal(a1-3)Gal(b1-4)GlcNAc(b1-6)GalNAc
In short: as §1

[10] = biological target: Gal(a1-3)Gal(b1-4)[Fuc(a1-3)]GlcNAc
In short: as §1

[11] = biological target: Gal(a1-3)Gal(b1-4)[Fuc(a1-3)]GlcNAc(b1-2)Man(a1-3)[Gal(a1-3)Gal(b1-4)[Fuc(a1-3)]GlcNAc(b1-2)Man(a1-6)]Man(b1-4)GlcNAc(b1-4)GlcNAc
In short: as §1

Gal(a1-3)GalNAc = biological target: Gal(a1-3)GalNAc
In short: as §1

[12] = biological target: Gal(a1-3)[Gal(a1-4)]Gal(b1-4)GlcNAc
In short: as §1

[13] = biological target: Gal(a1-4)Gal(b1-3)GlcNAc(b1-2)Man(a1-3)[Gal(a1-4)Gal(b1-3)GlcNAc(b1-2)Man(a1-6)]Man(b1-4)GlcNAc(b1-4)GlcNAc
In short: as §1

Gal(a1-4)Gal(b1-4)Glc = biological target: Gal(a1-4)Gal(b1-4)Glc
In short: as §1

Gal(a1-4)Gal(b1-4)GlcNAc = biological target: Gal(a1-4)Gal(b1-4)GlcNAc
In short: as §1

[14] = biological target: Gal(a1-4)Gal(b1-4)GlcNAc(b1-2)Man(a1-3)[Gal(a1-4)Gal(b1-4)GlcNAc(b1-2)Man(a1-6)]Man(b1-4)GlcNAc(b1-4)GlcNAc
In short: as §1

[15] = biological target: Gal(a1-4)Gal(b1-4)GlcNAc(b1-3)Gal(b1-4)Glc
In short: as §1

Gal(a1-4)GlcNAc = biological target: Gal(a1-4)GlcNAc
In short: as §1

Gal(a1-6)Glc = biological target: Gal(a1-6)Glc
In short: as §1

Gal(b1-2)Gal = biological target: Gal(b1-2)Gal
In short: as §1

Gal(b1-3)Gal = biological target: Gal(b1-3)Gal
In short: as §1

Gal(b1-3)Gal(b1-4)GlcNAc = biological target: Gal(b1-3)Gal(b1-4)GlcNAc
In short: as §1

Gal(b1-3)GalNAc = biological target: Gal(b1-3)GalNAc
In short: as §1

[16] = biological target: Gal(b1-3)GalNAc(a1-3)[Fuc(a1-2)]Gal(b1-4)Glc
In short: as §1

[17] = biological target: Gal(b1-3)GalNAc(a1-3)[Fuc(a1-2)]Gal(b1-4)GlcNAc
In short: as §1

Gal(b1-3)GalNAc(b1-3)Gal = biological target: Gal(b1-3)GalNAc(b1-3)Gal
In short: as §1

[18] = biological target: Gal(b1-3)GalNAc(b1-3)Gal(a1-4)Gal(b1-4)Glc
In short: as §1

[19] = biological target: Gal(b1-3)GalNAc(b1-4)Gal(b1-4)Glc
In short: as §1

[20] = biological target: Gal(b1-3)GalNAc(b1-4)[Neu5Ac(a2-3)]Gal(b1-4)Glc
In short: as §1

Gal(b1-3)GlcNAc = biological target: Gal(b1-3)GlcNAc
In short: as §1

[21] = biological target: Gal(b1-3)GlcNAc(a1-3)Gal(b1-4)GlcNAc
In short: as §1

[22] = biological target: Gal(b1-3)GlcNAc(a1-6)Gal(b1-4)GlcNAc
In short: as §1

Gal(b1-3)GlcNAc(b1-2)Man = biological target: Gal(b1-3)GlcNAc(b1-2)Man
In short: as §1

B1: MGL (Homo sapiens), Q8IUN9 (protein)
chain: MTRTYENFQYLENKVKVQGFKNGPLPLQSLLQRLCSGPCHLLLSLGLGLLLLVIICVVGFQNSKFQRDLVTLRTDFSNFTSNTVAEIQALTSQGSSLEETIASLKAEVEGFKQERQAGVSELQEHTTQKAHLGHCPHCPSVCVPVHSEMLLRVQQLVQDLKKLTCQVATLNNNASTEGTCCPVNWVEHQDSCYWFSHSGMSWAEAEKYCQLKNAHLVVINSREEQNFVQKYLGSAYTWMGLSDPEGAWKWVDGTDYATGFQNWKPGQPDDWQGHGLGGGEDCAHFHPDGRWNDDVCQRPYHWVCEAGLGQTSQESH
- glycan array binding signal (z-score) (Gal(a1-3)Gal): -0.235
- glycan array binding signal (z-score) (Gal(a1-3)Gal(b1-3)GlcNAc): -0.235
- glycan array binding signal (z-score) [1]: -0.236
- glycan array binding signal (z-score) [2]: -0.24
- glycan array binding signal (z-score) [3]: -0.241
- glycan array binding signal (z-score) [4]: 3.37
- glycan array binding signal (z-score) [5]: -0.216
- glycan array binding signal (z-score) (Gal(a1-3)Gal(b1-4)Glc): -0.24
- glycan array binding signal (z-score) (Gal(a1-3)Gal(b1-4)GlcNAc): -0.248
- glycan array binding signal (z-score) [6]: -0.252
- glycan array binding signal (z-score) [7]: -0.246
- glycan array binding signal (z-score) [8]: -0.243
- glycan array binding signal (z-score) [9]: 3.79
- glycan array binding signal (z-score) [10]: -0.244
- glycan array binding signal (z-score) [11]: -0.242
- glycan array binding signal (z-score) (Gal(a1-3)GalNAc): -0.208
- glycan array binding signal (z-score) [12]: -0.22
- glycan array binding signal (z-score) [13]: -0.239
- glycan array binding signal (z-score) (Gal(a1-4)Gal(b1-4)Glc): 0.107
- glycan array binding signal (z-score) (Gal(a1-4)Gal(b1-4)GlcNAc): -0.232
- glycan array binding signal (z-score) [14]: -0.236
- glycan array binding signal (z-score) [15]: -0.247
- glycan array binding signal (z-score) (Gal(a1-4)GlcNAc): -0.249
- glycan array binding signal (z-score) (Gal(a1-6)Glc): -0.247
- glycan array binding signal (z-score) (Gal(b1-2)Gal): -0.271
- glycan array binding signal (z-score) (Gal(b1-3)Gal): -0.252
- glycan array binding signal (z-score) (Gal(b1-3)Gal(b1-4)GlcNAc): -0.245
- glycan array binding signal (z-score) (Gal(b1-3)GalNAc): -0.242
- glycan array binding signal (z-score) [16]: -0.232
- glycan array binding signal (z-score) [17]: -0.251
- glycan array binding signal (z-score) (Gal(b1-3)GalNAc(b1-3)Gal): -0.249
- glycan array binding signal (z-score) [18]: 0.394
- glycan array binding signal (z-score) [19]: -0.269
- glycan array binding signal (z-score) [20]: 0.605
- glycan array binding signal (z-score) (Gal(b1-3)GlcNAc): -0.247
- glycan array binding signal (z-score) [21]: -0.245
- glycan array binding signal (z-score) [22]: -0.241
- glycan array binding signal (z-score) (Gal(b1-3)GlcNAc(b1-2)Man): -0.235
